# Experimental data as given in PubChem BioAssay AID1347073 (National Center for Advancing Translational Sciences (NCATS), 2019).
# In all, about 45,000 compounds went through this assay and about 200 (0.44%) were called active. The inconclusive results got no clear call from the source; some entries with a clear call stand among them for comparison. Calls follow the shape of the dose curve; as a rule, active = well fitted activation curve with a large enough effect; inconclusive = small, poorly fitted or top-dose-only effect; inactive = no such curve, though single readings can be large or run the other way. Potencies of inconclusive entries are doubtful fits and often do not repeat.
# Test: qHTS of TDP-43 Inhibitors: NCGC Sytravon Library Screen; also: nearly all actives have a fitted effect of over 55% in size; as to growth rescue (activation): 0% is about no effect
# Details: yeast TDP-43 toxicity rescue, BacTiter-Glo growth, 24 h; growth rescue (activation): at 46.1 µM (top of the series)
# Procedure, shortened: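 TDP-43-expressing yeast, pregrown in raffinose, seeded at OD600 0.02 in galactose medium with compound for 24 hr at 30 deg C. Growth read by BacTiter-Glo luminescence, so rescue of toxicity appears as activation.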
# Potency is read from the fitted curve at half-maximal effect; tags tell the direction and shape of the fitted curve.
Structure (SMILES),Potency,growth rescue (activation)
CC(NC(=O)COc1ccccc1-c1ccccc1)c1ccccc1 (stereo not drawn),"inconclusive: 11.2 µM [activator, partial curve, poor fit]",–
Cc1ccccc1/C=C1\SC(=S)N(/N=C/c2cc([N+](=O)[O-])ccc2O)C1=O,"inconclusive: 5.62 µM [activator, partial curve]",–
Cc1ccc(C(=O)NCC(=O)OCc2c(F)cccc2Cl)s1,"inconclusive: 22.4 µM [activator, partial curve, poor fit]",–
CCCCn1c(SCC(=O)c2ccc(O)c(O)c2)nc2ccsc2c1=O,"inconclusive: 10 µM [activator, partial curve, poor fit]",–
O=C(c1cnccn1)N1CCN(S(=O)(=O)c2cccc(Cl)c2)CC1,–,inactive: 12.7%
CCCCc1ccc(NC(=O)N[C@H](C(=O)O)C(C)C)cc1,"inconclusive: 17.8 µM [activator, partial curve, poor fit]",–
O=C(Cc1cccc(F)c1)Nc1ccc2c(c1)CCC2,–,inactive: 19%
CC(=O)N1CCCC(C(=O)c2ccc(Oc3ccccc3)cc2)C1 (stereo not drawn),"inconclusive: 11.2 µM [activator, partial curve, poor fit]",–
CCN(CC(=O)Nc1ccc(Cl)c(S(=O)(=O)N(C)C)c1)CC(=O)NC(C)C,–,inactive: 9.24%
COc1ccc(C(C)(NC(C)=O)c2nc(-c3ccc(F)c(Cl)c3)cs2)cc1 (stereo not drawn),–,inconclusive: 63% [activator]
CC1(Cc2ccccc2Cl)C(=O)Nc2c(Cl)cccc21 (stereo not drawn),–,inconclusive: 155% [activator]
COc1cccc(C(=O)OCC(=O)NCCC2=CCCCC2)c1,"inconclusive: 15.8 µM [activator, single point]",–
COc1ccc(C2=NN(c3ccc(C(=O)O)cc3)C(c3ccc(OC)c(OC)c3)C2)cc1 (stereo not drawn),"inconclusive: 31.6 µM [activator, single point]",–
COc1cc2c(cc1OC)CN(C(=O)Nc1ccccc1Cl)CC2,active: 12.6 µM,–
Cc1ccc(-n2c(SCC(=O)N/N=C/c3ccccc3C(=O)O)nnc2-c2ccccc2)cc1,"inconclusive: 20 µM [activator, partial curve, poor fit]",–
CN(C(=O)C1Cc2c(-c3ccc(Cl)cc3)ccnc2O1)c1ccccc1 (stereo not drawn),"inconclusive: 20 µM [activator, partial curve, poor fit]",–
CCOC(=O)C1(C)CCCCCN1C(=O)c1ccccc1F (stereo not drawn),–,inactive: 0.677%
CCOC(=O)c1cnn2c(C(F)(F)F)cc(-c3cn(C)nc3C)nc12,"inconclusive: 17.8 µM [activator, single point]",–
OC[C@@H]1CN(Cc2ccc3c(c2)OCO3)C[C@H](n2cnc3c(NC4CCCC4)ncnc32)O1,–,inactive: 0.0344%
Nc1c(-c2cccc(Cl)c2)cnn1-c1ccccc1,"inconclusive: 14.1 µM [activator, partial curve, poor fit]",–
Cn1c(NCC2CCCCC2)nc2cc(-c3ccsc3)sc2c1=O,–,inconclusive: 34.6% [activator]
CCCn1c(=O)c(C(=O)OCC)c(O)c2cc(Br)ccc21,"inconclusive: 12.6 µM [activator, single point]",–

Structure (SMILES),Potency,growth rescue (activation)
CCC1CCCCN1C(=O)COc1ccc2c3c(c(=O)oc2c1)CCC3 (stereo not drawn),"inconclusive: 12.6 µM [activator, partial curve, poor fit]",–
C=CCn1nc([N+](=O)[O-])nc1Sc1cccc2cccnc12,"inconclusive: 11.2 µM [activator, partial curve, poor fit]",–
Cc1nc(SCC(=O)Nc2ccc(Cl)cc2[N+](=O)[O-])nc(C)c1C,"inconclusive: 15.8 µM [activator, single point]",–
Cc1ccc(NC(=O)c2c(C)oc3ccc(O)c(CN(C)Cc4ccccc4)c23)c(C)c1,–,inactive: -8.24%
O=C(COn1nnc2ccc(Cl)cc21)Nc1ccc(F)cc1,"inconclusive: 17.8 µM [activator, partial curve, poor fit]",–
COCCn1cnc2c1c(=O)n(CC#N)c(=O)n2Cc1ccccc1,–,inactive: -1.22%
CC1CN(C(=S)SCC(=O)c2ccc([N+](=O)[O-])cc2)CC(C)O1 (stereo not drawn),"inconclusive: 12.6 µM [activator, partial curve, poor fit]",–
CCCC(O)(CCC)C(=O)NNc1ccc(C)cc1,–,inactive: -5.23%
Cc1ccc(/C=N\NC(=O)/C(=C\Nc2nccc(C)n2)NC(=O)c2ccccc2)cc1,"inconclusive: 35.5 µM [activator, single point]",–
O=C(c1ccc(Cl)cc1)N1N=C(c2ccccn2)CC1(O)C(F)(F)F (stereo not drawn),"inconclusive: 14.1 µM [activator, single point]",–
CN1/C(=C\C(=O)c2cccnc2Cl)C(C)(C)c2ccccc21,"inconclusive: 12.6 µM [activator, single point]",–
O=C(c1ccccc1NS(=O)(=O)c1ccc(Cl)cc1)N1CCc2ccccc21,"inconclusive: 20 µM [activator, single point]",–
C=CCn1c(SCC#N)nc2ccccc2c1=O,"inconclusive: 20 µM [activator, single point]",–
Cc1c(C(=O)N2CCOCC2)sc(NC(=O)c2ccccc2F)c1C#N,–,inactive: -26.8%
CCOC(=O)CCCN1C(=O)CCn2nc(-c3cn(C)c4ccccc34)cc21,–,inactive: 21%
COc1ccc(C(C)(NC(C)=O)c2nc(-c3cc(F)cc(F)c3)cs2)cc1 (stereo not drawn),–,inconclusive: 34.9% [activator]
Cc1c(-c2ncn[nH]2)sc(C#N)c1-c1ccccc1,"inconclusive: 22.4 µM [activator, single point]",–
O=C(NNC(=O)c1ccccn1)c1ccc(OC(F)F)cc1,"inconclusive: 22.4 µM [activator, single point]",–
OCc1cccc(Nc2ncnc3sc4c(c23)CCCCC4)c1,"inconclusive: 12.6 µM [activator, partial curve, poor fit]",–
COc1cc(NC(=O)COC(=O)Cc2ccc(-c3ccccc3)cc2)cc(OC)c1,"inconclusive: 31.6 µM [activator, single point]",–
CN(Cc1cccs1)C(=O)c1ccc(Cl)c(S(=O)(=O)N2CCCCCC2)c1,–,inconclusive: 48.3% [activator]
